# The BET-seq Pho4 binding data (Le et al. 2018)
# The list shows a part of the results. The energies were worked out here from pooled read counts, against the library average; single values are noisy.
# Biological target: T1, Pho4 (S. cerevisiae) (UniProt P07270)
# T1 sequence: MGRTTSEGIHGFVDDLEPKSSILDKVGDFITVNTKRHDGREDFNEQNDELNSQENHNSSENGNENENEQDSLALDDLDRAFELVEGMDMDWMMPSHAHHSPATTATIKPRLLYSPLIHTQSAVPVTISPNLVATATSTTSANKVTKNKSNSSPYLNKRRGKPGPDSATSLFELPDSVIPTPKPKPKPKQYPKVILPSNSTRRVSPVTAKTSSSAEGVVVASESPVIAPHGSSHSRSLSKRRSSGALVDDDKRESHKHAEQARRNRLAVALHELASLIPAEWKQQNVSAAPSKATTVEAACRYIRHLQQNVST
# Assay: relative binding free energy (BET-seq); higher = weaker binding
# Settings: reference: library average
row,Sequence,relative binding free energy [kcal/mol]
1,AGGACCACGTGCGGTG,-0.07
2,AGGTGCACGTGAGTCA,0.14
3,TGTAACACGTGGGGGA,-0.15
4,TTGTACACGTGCTAGT,-0.04
5,GGTACCACGTGTGCGT,-0.06
6,CGATACACGTGGGGAG,-0.06
7,GTGCGCACGTGGGTTG,-0.24
8,GGATTCACGTGAGCGT,0.28
9,CTGGGCACGTGAGGAG,0.08
10,TTGTGCACGTGCTGGC,-0.04
11,TAATGCACGTGGTCTT,-0.06
12,GGGGGCACGTGTGCCG,-0.18
13,TTGGCCACGTGTGCGA,-0.13
14,AGATGCACGTGAAAGT,0.15
15,GTAGACACGTGGCGGT,-0.07
16,TATGACACGTGGGATG,-0.12
17,GGTTACACGTGGGACT,0.12
18,ACGTTCACGTGTTATT,0.14
19,GGTTTCACGTGATTGA,0.44
20,GTCAGCACGTGGCAGT,0.06
21,CTTTTCACGTGAATTA,0.44
22,GGACACACGTGTGGGG,0.03
23,AGCATCACGTGATGGT,0.23
24,TTATGCACGTGGTGTC,-0.17
25,CGAGTCACGTGTTTAT,0.14

row,Sequence,relative binding free energy [kcal/mol]
1,GTTGTCACGTGGGATA,0.09
2,GGGGTCACGTGTATCT,0.05
3,TGAGTCACGTGAACGG,0.29
4,GTCTACACGTGTTGGA,0.13
5,CTGCTCACGTGTGTTT,0.15
6,GCTGGCACGTGTCGGG,0.09
7,ATTGCCACGTGCGGGG,-0.22
8,TACAGCACGTGGGTGC,-0.16
9,GAGTTCACGTGAGTGG,0.46
10,TTAATCACGTGTATAG,0.24
11,TAGGGCACGTGTAGGG,-0.11
12,CTGTACACGTGGGATG,-0.13
13,CGGTTCACGTGGGGCT,0.19
14,GGGGACACGTGAGTGA,0.32
15,ATTTACACGTGAACGG,0.28
16,TGGTCCACGTGCGTAT,0.06
17,GTCATCACGTGAGGTA,0.27
18,ATTTCCACGTGAAGTG,0.4
19,TTGCACACGTGTGGGT,0.05
20,TTTGCCACGTGTGTTT,-0.07
21,ATTGACACGTGAGTAG,0.29
22,ATATTCACGTGGAAAT,0.41
23,GGAAGCACGTGTGAGA,0.05
24,TGAGGCACGTGATTCG,-0.21
25,GAAGGCACGTGGGGGG,-0.17

row,Sequence,relative binding free energy [kcal/mol]
1,ATATTCACGTGTGAGT,0.32
2,AGGTTCACGTGTCGTA,0.22
3,GGCGGCACGTGTCGTG,-0.05
4,AATCGCACGTGGTTTG,-0.09
5,ATTGTCACGTGCGAAG,0.12
6,ATCGTCACGTGTGCGG,0.08
7,ATGATCACGTGTACGT,0.15
8,GCGCGCACGTGTGGGA,-0.01
9,AGTAGCACGTGCGGTG,-0.2
10,CTTGTCACGTGGAAGA,0.33
11,CCGGACACGTGTGGGA,0.21
12,GGTGGCACGTGCAGGG,-0.05
13,GAGCGCACGTGGTGGG,-0.12
14,CGATGCACGTGGTTTG,-0.15
15,CTGATCACGTGGGTTG,0.02
16,GTAGGCACGTGCGTTC,-0.07
17,TAAGACACGTGTTTGA,-0.03
18,AAGCACACGTGGTGGG,0.08
19,AAGACCACGTGGGTTG,-0.01
20,GGTGCCACGTGGGGTG,-0.17
21,TGGTGCACGTGCGGAG,0.02
22,ATTTCCACGTGGGCGT,-0.07
23,ATAATCACGTGTCTGT,0.17
